Hit rate of the full screen: of about 52,000 compounds, about 4,300 (8.3%) were called active. Cut-off read from the data, not from the text of the source: active = survival mostly below about 52% (no sharp cut-off); inactive = mostly above about 56%. Some of the results follow.

For this assay, the system named is DeltatarO mutant. The experiment in a line: growth inhibition of S. aureus wild type versus tarO mutant, primary screen, teichoic acid synthesis inhibitors, RN4220, OD600 (AID 463173). The settings on record: OD600, 18 h, active compounds read low; concentration not given here unless noted.
For the molecule `CCC1(CCc2ccncc2)C(=O)NC(=O)NC1=O`, the survival is inactive: 75%. For `CC(c1ccccc1)N1CCNCC1` (stereo not given), the survival was inactive: 95%.

For `CCC(C(=O)Nc1ccccc1F)N1C(=O)CN=C(c2ccccc2)c2ccccc21` (stereo not given), the survival was inactive: 84%. For `CCc1ccc(-n2nc(C)c3c2NC(=O)CSC3c2ccc(OC)cc2OC)cc1` (stereo not given) the value was inactive: 60%; for `CCOC(=O)c1ccc(NC(=O)c2cccn(Cc3ccccc3F)c2=O)cc1`, inactive: 86%. For `N#Cc1ccccc1NC(=O)c1cccn(Cc2ccccc2)c1=O`, the survival was inactive: 94%. In the case of `CCN=Cc1c(O)n(C)c(=O)n(C)c1=O`, the survival is inactive: 91%. For `COc1ccc(-c2nc(CN3C(=O)CN=C(c4ccccc4Cl)c4cc(Cl)ccc43)c(C)o2)cc1OC` the value was inactive: 63%; for `Cc1cccc(CN2C(=O)CN=C(c3ccccc3)c3cc(Cl)ccc32)c1`, inactive: 92%. In the case of `CCCc1ccc(OCC(=O)Nc2ccc(Cl)cc2C(=O)c2ccccc2)cc1`, the survival is inactive: 67%. On to `CC(C)c1ccc(NC(=O)CN2C(=O)CN=C(c3ccccc3)c3ccccc32)cc1`, for which the survival is inactive: 93%. For `COc1ccc(OCC(=O)N2CCN(CCc3ccccn3)CC2)cc1` the value was inactive: 55%; for `O=C(NC1CC2CCC(C1)N2)c1ccccc1` (stereo not given), inactive: 90%; for `N#CC(C#N)=Cc1ccc(N2CCCCC2)cc1`, inactive: 84%. `COc1ccc(C)cc1NC(=O)c1cccn(Cc2ccccc2Cl)c1=O`: the survival was inactive: 93%.

For the molecule `O=C(COc1ccccc1[N+](=O)[O-])N1CCN(CCc2ccncc2)CC1`, the survival is inactive: 90%.

For the molecule `Cc1cccc(C)c1OCC(=O)Nc1ccc(Cl)cc1C(=O)c1ccccc1`, the survival was active: 17%. In the case of `COc1ccc(CN2CCNCC2)cc1`, the survival is inactive: 67%. On to `C1CCN2C(C1)N1CCCCC1N1CCCCC21` (stereo not given), for which the survival is inactive: 100%.

With `CN1C(=O)C(=Cc2ccco2)C(=O)N(C)C1=O`, the survival was inactive: 78%. Then `CCC(C)N1CCN(Cc2cc(OC)c(OC)cc2OC)CC1` (stereo not given), with inactive: 108%; and `Cc1ccc(-n2c(/C=C/c3ccccc3)nc3ccccc3c2=O)cc1Cl`, with inactive: 68%; and `CC(=O)OC1(c2ccccc2)CCN(C)C2CCCCC21` (stereo not given), with inactive: 91%. For `CN1/C(=C\C=C2C(=O)NC(=O)NC2=O)C(C)(C)c2ccccc21` the value was inactive: 83%; for `CCCNCCc1ccccc1`, inactive: 85%; for `Cc1ccc(NC(=O)CN2C(=O)CN=C(c3ccccc3)c3ccccc32)c(C)c1`, inactive: 90%.

For `N=C1SCC(=O)N1Cc1ccccc1`, the survival is inactive: 66%. Then `CC(C)OC12Oc3ccccc3C=C1N1CCC2CC1` (stereo not given), with inactive: 80%.

`O=c1c2ccccc2nc(-c2ccco2)n1-c1nccs1`: the survival was inactive: 84%. On to `COc1cc(/C=C/c2nc3ccccc3c(=O)n2-c2ccc(Br)c(C)c2)ccc1O`, for which the survival is inactive: 71%. Then `N#Cc1cc([N+](=O)[O-])ccc1NC(=O)c1cccn(Cc2cccc(F)c2)c1=O`, with inactive: 102%; and `O=C(Nc1ccc2c(c1)OCCO2)c1cccn(Cc2cccc([N+](=O)[O-])c2)c1=O`, with inactive: 94%. For `CC12CCC3C(CCC4CC(N)CCC43C)C1CCC2O` (stereo not given) the value was inactive: 113%. With `CSc1ccc(C(c2c(O)c3ccccc3oc2=O)c2c(C)n(C)n(-c3ccccc3)c2=O)cc1` (stereo not given), the survival was inactive: 128%.

Take `CN1CCN(c2csc3ccc(F)cc3c2=O)CC1`: the survival is inactive: 98%. Turning to `CCOc1ccc(-n2c(/C=C/c3ccccc3)nc3ccccc3c2=O)cc1`, the survival was inactive: 107%. Then `N#Cc1cc2c(nc1SCC(=O)Nc1cccc(F)c1)C1CCN2CC1`, with active: -4%; and `CSc1nc2ccccc2c(=O)n1-c1ccccc1C`, with inactive: 95%. On to `O=C(Nc1ccc2c(c1)OCO2)c1cccn(Cc2ccc(F)cc2)c1=O`, for which the survival was inactive: 72%.

For `Cc1ccccc1Cn1cccc(C(=O)Nc2cc(Cl)ccc2C#N)c1=O`, the survival is inactive: 58%. As for `O=c1cccc2n1CC1CC2CN(c2ncnc3c2cnn3-c2ccc(Cl)cc2)C1` (stereo not given), the survival is inactive: 52%.

Turning to `Cn1c(=O)n(C)c2cc(CNCCc3ccccc3)ccc21`, the survival is inactive: 77%. For the molecule `CCC(=O)N1CC(=O)Nc2ccc(C)cc2C1c1ccc(F)cc1` (stereo not given), the survival is inactive: 64%. Turning to `CCN1CCN(C(=O)COc2ccc(S(=O)(=O)N(C)Cc3ccccc3)cc2)CC1`, the survival is inactive: 87%.

With `CCOc1ccc2nc(NC(=O)c3cccn(Cc4ccccc4C)c3=O)sc2c1`, the survival was inactive: 80%. As for `CCOc1ccc(CC2(CCc3ccncc3)C(=O)NC(=O)NC2=O)cc1`, the survival is inactive: 76%. For `OCCCNc1c2c(nc3ccccc13)CCCC2` the value was inactive: 76%; for `N#CC(C#N)=Cc1ccc(-c2ccccc2)o1`, inactive: 96%. Then `Cn1cc(C=C(C#N)C#N)c2ccccc21`, with inactive: 92%. As to `COC(=O)c1cn(Cc2ccccc2C#N)c2ccccc12`, the survival is inactive: 82%. Consider `Cc1cc(NC(=O)c2cccn(Cc3cccc([N+](=O)[O-])c3)c2=O)no1`, for which the survival is inactive: 80%. Then `O=C(Cc1ccccc1)Oc1cccc(-n2cnnn2)c1`, with inactive: 111%. On to `Cc1cc(N2CCNCC2)nc2ccccc12`, for which the survival is inactive: 86%. For `COc1ccc(-c2nc(CN3C(=O)CN=C(c4ccccc4)c4ccccc43)c(C)o2)cc1OC`, the survival is inactive: 97%. On to `CC1CC(=O)C2CCCCC2N1` (stereo not given), for which the survival was inactive: 84%. For `CCc1ccc(OCC(=O)N2CCN(CCc3ccccn3)CC2)cc1` the value was inactive: 63%; for `COc1ccc(CNCC(=O)N2CCC3(CC2)OCCO3)cc1`, inactive: 93%.

With `CN(C)C(=O)Oc1ccnc2cc(Cl)ccc12`, the survival is inactive: 87%.

Regarding `O=C1CN=C(c2ccccc2)c2cc(Cl)ccc2N1Cc1ccc(Cl)cc1`, the survival was inactive: 66%. As for `CCC(C)c1c(O)[nH]c(=S)[nH]c1=O` (stereo not given), the survival is inactive: 82%. For `COc1ccc(-c2nn3c(=O)cc(CN4CCN(C(=O)COc5ccc(F)cc5)CC4)nc3s2)cc1` the value was inactive: 71%; for `Cc1oc(-c2ccc(Cl)cc2)nc1CN1C(=O)CN=C(c2ccccc2)c2cc(Cl)ccc21`, inactive: 90%; for `Cc1ccc(C)c(CN2C(=O)c3ccccc3Sc3ccc(C(=O)N4CCC5(CC4)OCCO5)cc32)c1`, inactive: 55%. `O=C(c1ccc2c(c1)N(Cc1c(F)cccc1Cl)C(=O)c1ccccc1S2)N1CCC2(CC1)OCCO2`: the survival is inactive: 81%. Turning to `O=C(Nc1ccc(OC(F)(F)F)cc1)c1cccn(Cc2ccccc2Cl)c1=O`, the survival is inactive: 135%. For `Cc1cccc(CN2C(=O)CN=C(c3ccccc3Cl)c3cc(Cl)ccc32)c1` the value was inactive: 101%. Then `COc1ccc(N=C2SCCCN2C)cc1`, with inactive: 99%; and `Cc1ccc(-n2c(/C=C/c3ccccc3)nc3ccccc3c2=O)cc1C`, with inactive: 78%; and `COc1ccc(C=C(C#N)C#N)c2ccccc12`, with inactive: 67%. `Cc1ccc2scc(N3CCN(C)CC3)c(=O)c2c1`: the survival was inactive: 107%.

For `C=CCn1c(C)c(C(=O)OCC)c2cc(O)ccc21`, the survival was inactive: 90%.

Consider `CC(=O)c1ccc(NC(=O)c2sc3nc4c(cc3c2N)N2CCC4CC2)cc1`, for which the survival is inactive: 98%. As for `O=c1c2ccccc2nc(CN2CCOCC2)n1-c1ccccc1F`, the survival is inactive: 91%. As for `CCOc1ccc(CN2C(=O)c3ccccc3Sc3ccc(C(=O)N4CCC5(CC4)OCCO5)cc32)cc1`, the survival is inactive: 74%. For the molecule `Cc1c(C(c2ccc(O)cc2)c2c(O)c3ccccc3oc2=O)c(=O)n(-c2ccccc2)n1C` (stereo not given), the survival is active: 47%. With `NC(=O)c1ccc(NC(=O)c2cccn(Cc3ccccc3)c2=O)cc1`, the survival is inactive: 83%. Turning to `Cc1ccc(-n2c(/C=C/c3cccc(C(F)(F)F)c3)nc3ccccc3c2=O)cc1`, the survival was inactive: 72%. As to `CCC(CC)NC1CCCCC1OC` (stereo not given), the survival is inactive: 89%. As for `N#CC1=C(N)Oc2c(c(=O)oc3ccccc23)C1C1CC=CCC1` (stereo not given), the survival was inactive: 68%. Then `Cc1cccc(-n2c(/C=C/c3cccc4ccccc34)nc3ccccc3c2=O)c1`, with inactive: 94%. `O=c1c2ccccc2nc(/C=C\c2cccc(Br)c2)n1-c1ccc(O)cc1`: the survival is inactive: 100%. Then `CCSc1nnc(NC(=O)c2cccn(Cc3ccc(Cl)cc3)c2=O)s1`, with inactive: 73%; and `N#Cc1cc2c(nc1SCC(=O)Nc1ccc(Cl)c(C(F)(F)F)c1)C1CCN2CC1`, with active: -1%; and `O=C1NC(=O)C(C(CC(=O)c2ccccc2)c2ccccc2)C(=O)N1` (stereo not given), with inactive: 81%. Consider `COc1ccc(NC(=O)c2cccn(Cc3ccc(Cl)cc3)c2=O)c(OC)c1`, for which the survival is inactive: 80%. As for `O=C(/C=C/c1ccco1)C1C(=O)c2ccccc2C1=O`, the survival is inactive: 98%. Then `O=C(COc1ccccc1)N1CCN(Cc2ccc(Br)cc2)CC1`, with inactive: 78%; and `CC1CN(C)C(C)(C)CC1(O)c1ccccc1` (stereo not given), with inactive: 95%.

As for `O=C(COc1ccccc1[N+](=O)[O-])N1CCN(CCc2ccccn2)CC1`, the survival is inactive: 49%. Turning to `Cc1ccccc1-n1c(/C=C/c2ccccc2F)nc2ccccc2c1=O`, the survival is active: 5%. On to `O=C(Nc1ccccc1C(F)(F)F)c1cccn(Cc2ccccc2)c1=O`, for which the survival was inactive: 88%. Regarding `Cc1ccc(-n2c(/C=C/c3cccc4ccccc34)nc3ccccc3c2=O)cc1`, the survival is inactive: 77%. Regarding `NC(=O)CN1C2CCC1CC(NC(=O)C1CC1)C2` (stereo not given), the survival is inactive: 102%. Turning to `COCCNC(=O)CN1C2CCC1CC(O)(c1cccnc1)C2` (stereo not given), the survival was inactive: 69%. Take `S=c1[nH]nc(CCN2CCN(c3ccc(Cl)cc3)CC2)n1-c1ccccc1`: the survival is inactive: 68%. Take `Cc1cccc(Cn2cccc(C(=O)Nc3nc4ccccc4s3)c2=O)c1`: the survival was inactive: 122%.

Regarding `Cc1cccc(-n2c(CC3C(=O)Nc4ccc(C)cc43)nc3ccccc3c2=O)c1` (stereo not given), the survival is active: 34%. `COc1cccc(-n2c(/C=C/c3cccc(C)c3)nc3ccccc3c2=O)c1`: the survival is active: 0%. For `COc1ccc(OC)c(CCNCc2c(C(=O)O)c(C)n(Cc3ccc(F)cc3Cl)c2C)c1` the value was inactive: 67%; for `OC1(c2ccc(F)cc2)CC2CCC(C1)N2Cc1nnnn1C1CCCCC1` (stereo not given), inactive: 97%.

(Values after PubChem BioAssay AID463173 (ICCB-Longwood Screening Facility, Harvard Medical School, 2010).)
